Experimental data published in PubChem BioAssay AID504845 (National Center for Advancing Translational Sciences (NCATS), 2011).
Among all 390,000 compounds or so, about 150 (0.038%) were called active. Inconclusive means that the source gave no clear call. Such entries were picked first, then a sample of the others. The call rests on the fitted dose curve; in most records, active means well fitted inhibition curve with a large enough effect; inconclusive means small, poorly fitted or top-dose-only effect; inactive means no such curve, though single readings can be large or run the other way. Potencies beside an inconclusive call are fits to weak or partial responses and may not hold up.

What follows are molecules tested against Regulator of G-protein signaling 4 (Homo sapiens) (UniProt P49798) (assay: Inhibitors of Regulator of G Protein Signaling (RGS) 4: qHTS). Conditions: Transcreener GDP fluorescence polarization, RGS4-accelerated GTP hydrolysis; series mostly up to 114 µM.
Sequence of UniProt P49798 (P49798 whole entry, looked up): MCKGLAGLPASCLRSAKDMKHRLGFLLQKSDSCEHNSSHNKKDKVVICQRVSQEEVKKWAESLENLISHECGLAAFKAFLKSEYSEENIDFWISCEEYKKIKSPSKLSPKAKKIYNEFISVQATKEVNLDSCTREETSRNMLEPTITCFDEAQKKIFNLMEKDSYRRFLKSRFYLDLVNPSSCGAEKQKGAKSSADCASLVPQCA
Outline: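 MLSMR compounds (23 nl, pin-transferred) preincubated 10 min at room temperature with a 500nM (2x) first reagent, then RGS4 at 900nM (2x) plus Transcreener GDP mix added; fluorescence polarization (620/688 nm) read before and after 90 min at 30 °C.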
Further: nearly all actives have a fitted effect of over 75% in size.
Potency means the concentration at half of the fitted maximal effect; tags describe the fitted curve by direction and shape.

**Q.** How did the Potency turn out when `O=C(Cn1cnc2c(OCc3ccccc3)ncnc21)NCc1ccccc1` was run?
**A.** inconclusive: 50.1 µM [inhibitor, single point]

**Q.** How did the Potency turn out when `COc1ccc(S(=O)(=O)Nc2cccc3c2O[C@@H](CN(C)Cc2ccc(C(=O)O)cc2)[C@@H](C)CN([C@H](C)CO)C3=O)cc1` was run?
**A.** inactive

**Q.** `COc1cc(OC)cc(C(=O)NCC(=O)OCC(=O)C(C)(C)C)c1` was tested. Which Potency did it give?
**A.** inconclusive: 50.1 µM [inhibitor, partial curve, poor fit]

**Q.** How did the Potency turn out when `C=C(C)C(=O)Nc1cccc(C2=NOC3(C2)C[C@@H](C(N)=O)N(C(=O)C(=C)C)C3)c1` (stereo partly specified) was run?
**A.** inconclusive: 17.8 µM [inhibitor, full curve, poor fit]

**Q.** For `COc1ccc(/C=N\NC(=O)c2ccccc2)cc1COc1ccc(F)cc1`, which Potency is on record?
**A.** inactive

**Q.** How did the Potency turn out when `CCOc1ccccc1-n1c(SCC(=O)N2CCCc3ccccc32)nnc1-c1cccnc1` was run?
**A.** inactive

**Q.** Which Potency does the source give for `Cc1cccc(C)c1OCc1cc(C(=O)N2CCC(c3ccccc3)CC2)no1` here?
**A.** inactive

**Q.** `Cc1nnc(SCC(=O)c2ccc(Cl)cc2)n(N)c1=O` was tested. Which Potency did it give?
**A.** inconclusive: 79.4 µM [inhibitor, partial curve, poor fit]

**Q.** `COc1ccc(-c2ccc(CCC(=O)O)o2)cc1` was tested. Which Potency did it give?
**A.** inconclusive: 17.8 µM [inhibitor, full curve, poor fit]

**Q.** `COC(=O)Cc1cc(=O)n2[nH]c(C)cc2n1` was tested. Which Potency did it give?
**A.** inconclusive: 89.1 µM [inhibitor, single point]

**Q.** Which Potency does the source give for `Cc1c(C2=CCN(S(=O)(=O)c3ccc(Br)cc3)CC2)c2ccccc2n1CC(=O)N1CCCC1` here?
**A.** inactive

**Q.** Which Potency does the source give for `NC(=O)C1CC(=O)N(c2ccc(OCc3ccc(Cl)cc3Cl)cc2)C1` (stereo unspecified) here?
**A.** inactive

**Q.** Which Potency does the source give for `O=C(CNC(=O)c1cccs1)OCC(=O)c1ccc2ccccc2c1` here?
**A.** inactive

**Q.** How did the Potency turn out when `COc1ccc2oc(=O)c(-c3csc(Nc4cccc(O)c4)n3)cc2c1` was run?
**A.** inconclusive: 79.4 µM [inhibitor, single point]

**Q.** With `CCOC(=O)Cc1csc(N/N=C\c2cccc(Br)c2)n1` as the molecule, how does the Potency read?
**A.** inconclusive: 35.5 µM [inhibitor, partial curve, poor fit]

**Q.** Which Potency does the source give for `COc1ccc(-n2c(C)nc3sc4c(c3c2=O)CCC4)cc1` here?
**A.** inconclusive: 79.4 µM [inhibitor, partial curve, poor fit]

**Q.** Which Potency does the source give for `NC(=O)c1cc(S(=O)(=O)NCCCc2ccccc2)cs1` here?
**A.** inconclusive: 56.2 µM [inhibitor, partial curve, poor fit]

**Q.** For `Oc1ccc(/C=N/Nc2ccnc3cc(Cl)ccc23)c(O)c1`, which Potency is on record?
**A.** inconclusive: 56.2 µM [inhibitor, partial curve, poor fit]

**Q.** `CCC1CCCCN1CCCNC(=O)c1ccc2c(c1)N(Cc1ccccc1F)C(=O)c1ccccc1S2(=O)=O` (stereo unspecified) was tested. Which Potency did it give?
**A.** inactive

**Q.** `C/C(=N\Nc1ccc(Cl)cc1)c1c(O)cc(C)oc1=O` was tested. Which Potency did it give?
**A.** inconclusive: 100 µM [inhibitor, partial curve, poor fit]

**Q.** With `CN(C)CC1CC/C(=C\c2ccc(O)cc2)C1=O` (stereo unspecified) as the molecule, how does the Potency read?
**A.** inconclusive: 50.1 µM [inhibitor, partial curve, poor fit]

**Q.** Which Potency does the source give for `N#Cc1ccccc1OCC(=O)Nc1cccc(S(=O)(=O)N2CCCC2)c1` here?
**A.** inactive

**Q.** `CCOC(=O)N1CCN(S(=O)(=O)c2c(C)nc3scc(C)n3c2=O)CC1` was tested. Which Potency did it give?
**A.** inconclusive: 70.8 µM [inhibitor, single point]

**Q.** `COc1ccc2cc3c(N)nn(C(=O)c4ccc(F)cc4)c3nc2c1` was tested. Which Potency did it give?
**A.** inconclusive: 50.1 µM [inhibitor, partial curve, poor fit]

**Q.** `Cc1ccc(/C=[N+](\[O-])c2ccc(N(C)C)cc2)c2nsnc12` was tested. Which Potency did it give?
**A.** inconclusive: 17.8 µM [inhibitor, full curve, poor fit]

**Q.** `Cc1cc(NS(=O)(=O)c2ccc(NC(=S)NC(=O)c3cccc(S(=O)(=O)N(C)C)c3)cc2)no1` was tested. Which Potency did it give?
**A.** inconclusive: 56.2 µM [inhibitor, partial curve, poor fit]

**Q.** Which Potency does the source give for `Cc1c(C(=O)Oc2ccc(-c3cnc4ccccc4n3)cc2)cccc1[N+](=O)[O-]` here?
**A.** inconclusive: 79.4 µM [inhibitor, partial curve, poor fit]

**Q.** With `O=C(c1cc([N+](=O)[O-])ccc1N1CCCCC1)N1CCCCC1` as the molecule, how does the Potency read?
**A.** inconclusive: 31.6 µM [inhibitor, full curve, poor fit]

**Q.** With `CCC(=O)N1N=C(c2cccs2)CC1c1ccc(C)cc1` (stereo unspecified) as the molecule, how does the Potency read?
**A.** inconclusive: 89.1 µM [inhibitor, single point]

**Q.** `O=C(O)CSc1c(-c2ccccc2)c2cc(Cl)ccc2[nH]c1=O` was tested. Which Potency did it give?
**A.** inconclusive: 79.4 µM [inhibitor, partial curve, poor fit]

**Q.** `O=C1NC(=S)S/C1=C/c1ccc(N2CCOCC2)o1` was tested. Which Potency did it give?
**A.** inconclusive: 17.8 µM [inhibitor, full curve, poor fit]

**Q.** With `COc1ccc(NC(=O)Cn2nnc(-c3ccccc3NC(=O)c3cccs3)n2)cc1` as the molecule, how does the Potency read?
**A.** inactive

**Q.** Which Potency does the source give for `COc1cccc(/C=C2/CN(C)CC3=C2OC(N)=C(C#N)C3c2cccc(OC)c2)c1` (stereo unspecified) here?
**A.** inactive

**Q.** For `Cc1cc(C=O)c(C)c2c1[nH]c1ccccc12`, which Potency is on record?
**A.** inconclusive: 70.8 µM [inhibitor, partial curve, poor fit]

**Q.** How did the Potency turn out when `CSc1ccccc1C(=O)Nc1cc2c(cc1C(=O)O)OCCCO2` was run?
**A.** inconclusive: 79.4 µM [inhibitor, partial curve, poor fit]

**Q.** `O=C(Nc1ccc(F)cc1)C1CCN(c2nc3ccccc3n3cccc23)CC1` was tested. Which Potency did it give?
**A.** inactive

**Q.** `CNC(=S)Nc1ccc(N2CCN(c3ccc(C(F)(F)F)cn3)CC2)nc1` was tested. Which Potency did it give?
**A.** inactive

**Q.** `Cc1c(-c2nsc(NC(=O)c3cccs3)n2)nnn1-c1ccc(Cl)cc1` was tested. Which Potency did it give?
**A.** inconclusive: 31.6 µM [inhibitor, full curve, poor fit]

**Q.** With `c1csc(-c2nn3c(C4COc5ccccc5O4)nnc3s2)c1` (stereo unspecified) as the molecule, how does the Potency read?
**A.** inconclusive: 44.7 µM [inhibitor, partial curve, poor fit]

**Q.** For `OCc1cn(-c2ccccc2)nc1-c1ccc(-c2nn(-c3ccccc3)cc2CO)cc1`, which Potency is on record?
**A.** inactive

**Q.** Which Potency does the source give for `CCOC(=O)C1CCN(S(=O)(=O)c2ccc(CC)cc2)CC1` here?
**A.** inconclusive: 20 µM [inhibitor, full curve, poor fit]

**Q.** How did the Potency turn out when `COC(=O)C1=C(C(=O)OC)C(c2cc(Br)ccc2O)c2sc(=O)[nH]c2S1` (stereo unspecified) was run?
**A.** inconclusive: 31.6 µM [inhibitor, full curve, poor fit]

**Q.** With `Cc1ccc(C2=NN(C(=O)CN3CCN(C4CCS(=O)(=O)C4)CC3)C(c3ccco3)C2)cc1` (stereo unspecified) as the molecule, how does the Potency read?
**A.** inconclusive: 89.1 µM [inhibitor, single point]

**Q.** With `CCCCn1c(SCC(=O)Nc2ccc(C)c(S(=O)(=O)N3CCOCC3)c2)nnc1C(CC)N(C)C` (stereo unspecified) as the molecule, how does the Potency read?
**A.** inconclusive: 89.1 µM [inhibitor, single point]

**Q.** For `COc1ccc(-c2nsc(SCC(=O)Nc3cc(C)on3)n2)cc1`, which Potency is on record?
**A.** inconclusive: 70.8 µM [inhibitor, partial curve, poor fit]

**Q.** With `COC(=O)/C=C1/SC(=NC(=O)c2ccc(Cl)cc2)NC1=O` as the molecule, how does the Potency read?
**A.** inconclusive: 50.1 µM [inhibitor, partial curve, poor fit]

**Q.** `O=C(NNc1c2ccccc2nc2ccccc12)c1ccc(Cl)cc1` was tested. Which Potency did it give?
**A.** inactive

**Q.** Which Potency does the source give for `COc1cc(CN(C(=O)c2ccc(C)cc2)c2ccccn2)cc(OC)c1OC` here?
**A.** inactive

**Q.** How did the Potency turn out when `CCCCOc1ccc(-c2nc(=S)[nH][nH]2)cc1` was run?
**A.** inconclusive: 79.4 µM [inhibitor, partial curve, poor fit]

**Q.** `OCC[C@@H]1C[C@H](O)[C@@H](O)[C@@]2(CCCc3ccccc3O2)O1` was tested. Which Potency did it give?
**A.** inactive

**Q.** `CCC(C)(C)n1nnnc1C(c1ccc(C)cc1)N1CCCC1` (stereo unspecified) was tested. Which Potency did it give?
**A.** inactive

**Q.** For `Cc1ccc(NC(=O)C2=C(O)c3sccc3N(C)S2(=O)=O)cc1`, which Potency is on record?
**A.** inconclusive: 79.4 µM [inhibitor, partial curve, poor fit]

**Q.** For `Cc1[nH]nc(SCC(=O)N2CCCCC2)c1[N+](=O)[O-]`, which Potency is on record?
**A.** inactive

**Q.** With `CC(C)C12NC(=O)NC(=O)N1CCS2` (stereo unspecified) as the molecule, how does the Potency read?
**A.** inconclusive: 50.1 µM [inhibitor, partial curve, poor fit]

**Q.** For `NCCNS(=O)(=O)c1cccc2c(Cl)cccc12`, which Potency is on record?
**A.** inconclusive: 7.52 µM [inhibitor, partial curve, poor fit]

**Q.** Which Potency does the source give for `Cc1nc(NC(=O)c2ccccc2)sc1-c1csc(N)n1` here?
**A.** inconclusive: 79.4 µM [inhibitor, single point]

**Q.** For `COc1ccc(-c2coc3cc(OC)cc(O)c3c2=O)cc1`, which Potency is on record?
**A.** inconclusive: 79.4 µM [inhibitor, single point]

**Q.** With `COc1ccc(NC(=S)NCCSc2ccc(Cl)cc2)c(OC)c1` as the molecule, how does the Potency read?
**A.** inconclusive: 50.1 µM [inhibitor, partial curve, poor fit]

**Q.** For `COc1ccc(CNC(=O)C(c2ccc(C)o2)N(C(=O)c2csnn2)c2ccc(C(C)C)cc2)cc1` (stereo unspecified), which Potency is on record?
**A.** inactive

**Q.** Which Potency does the source give for `Nc1ncnc2c1ncn2[C@@H]1O[C@H](COP(=O)(O)CP(=O)(O)OP(=O)(O)O)[C@@H](O)[C@H]1O` here?
**A.** inconclusive: 26.7 µM [inhibitor, single point]

**Q.** `Cc1ccc(/C=C/C(=O)N2CC(C)CC(C)C2)o1` (stereo unspecified) was tested. Which Potency did it give?
**A.** inconclusive: 31.6 µM [inhibitor, full curve, poor fit]

**Q.** How did the Potency turn out when `Cc1cc(C(=O)CSc2ccc(Cl)cc2)cc(C)c1OC(=S)N(C)C` was run?
**A.** inactive

**Q.** With `CCc1ccc(NC(=O)C(=O)NCCc2sc(-c3ccc(C)cc3)nc2C)cc1` as the molecule, how does the Potency read?
**A.** inactive

**Q.** For `O=C(N/N=C/C(Br)=C\c1ccccc1)c1n[nH]c2c1CCC2`, which Potency is on record?
**A.** inconclusive: 17.8 µM [inhibitor, full curve, poor fit]

**Q.** For `OCCN1CCN(C(=S)c2ccc(-c3ccccc3)cc2)CC1`, which Potency is on record?
**A.** inconclusive: 44.7 µM [inhibitor, partial curve, poor fit]

**Q.** For `COc1ccc(N=CC=C2OC(C)(C)C(C)(C)O2)cc1OC`, which Potency is on record?
**A.** inactive
